98 variants from a collection of fitness landscapes (doi:10.1016/j.celrep.2020.107928) can be followed below.

The chains are these.
B1: Caulobacter ParB omega fusion; a variant is named by its letters at X, in order, B8GW30 (parent)
chain: MESVVVGEPGMSEGRRGLGRGLSALLGEVDAAPAQAPGEQLGGSREAPIEILQRNPDQPRRTFREEDLEDLSNSIREKGVLQPILVRPSPDTAGEYQIVAGERAWRAAQRAGLKTVPIMVRELDDLAVLEIGIIENVQRADLNVLEEALSYKVLMEKFERTQENIAQTIGKSXSHVANXMRLLXLPDEVQSYLVSGELTAXHARAIAAAADPVALAKQIIEGGLSVRETEALARKAPNLSAGKSKGGRPPRVKDTDTQALESDLSSVLGLDVSIDHRGSTGTLTITYATLEQLDDLCNRLTRGI

The full ranking holds about 81,000 sequences; the median of “one-hybrid fitness for binding NBS DNA” is about -0.1, and the highest 2% start at about 0.36. Some of the results follow.

The variants in the experiment derive from B1. The experiment can be described thus: one-hybrid fitness for binding NBS DNA (the Noc-binding site; scaled: cognate 1, non-cognate 0); higher = stronger binding. Conditions: with NBS DNA site. The method, boiled down: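 The reporter was HIS3, with the binding site 19 bp from the promoter, in E. coli USO used for bacterial one-hybrid selection of Caulobacter ParB libraries with four specificity codons randomised. Growth was on M9 lacking histidine, with 0.1 mM IPTG and 5 mM 3-AT, for 48 hours at 37°C. Illumina sequencing covered plasmids before and after selection; three replicate libraries were pooled and variants with under 10 reads dropped. A fitness score is the log change in variant-to-wild-type read ratio, rescaled to the cognate and non-cognate references.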
Consider GWDP, for which the “one-hybrid fitness for binding NBS DNA” value was not above 0.2.

Consider DADT, for which the “one-hybrid fitness for binding NBS DNA” value is not above 0.2.

Consider HTFC, for which the “one-hybrid fitness for binding NBS DNA” value is not above 0.2.

For the variant TIHR, the “one-hybrid fitness for binding NBS DNA” value was not above 0.2.

Take ILCQ: the “one-hybrid fitness for binding NBS DNA” value was not above 0.2.

As for QMIC, the “one-hybrid fitness for binding NBS DNA” value was not above 0.2.

For CHNC, the “one-hybrid fitness for binding NBS DNA” value was not above 0.2.

Take QGER: the “one-hybrid fitness for binding NBS DNA” value was not above 0.2.

Regarding MIWR, the “one-hybrid fitness for binding NBS DNA” value is not above 0.2.

Regarding SPQT, the “one-hybrid fitness for binding NBS DNA” value is not above 0.2.

With EQPS, the “one-hybrid fitness for binding NBS DNA” value is not above 0.2.

Turning to WKCS, the “one-hybrid fitness for binding NBS DNA” value is not above 0.2.

On to RVFA, for which the “one-hybrid fitness for binding NBS DNA” value was not above 0.2.

With QGIT, the “one-hybrid fitness for binding NBS DNA” value was not above 0.2.

Regarding RCCV, the “one-hybrid fitness for binding NBS DNA” value is not above 0.2.

Regarding NSIS, the “one-hybrid fitness for binding NBS DNA” value was not above 0.2.

QAWQ: the “one-hybrid fitness for binding NBS DNA” value was not above 0.2.

Consider WLSL, for which the “one-hybrid fitness for binding NBS DNA” value was not above 0.2.

Turning to SVNY, the “one-hybrid fitness for binding NBS DNA” value is not above 0.2.

Regarding RGTQ, the “one-hybrid fitness for binding NBS DNA” value is not above 0.2.

RWHC: the “one-hybrid fitness for binding NBS DNA” value is not above 0.2.

Turning to MSPL, the “one-hybrid fitness for binding NBS DNA” value is not above 0.2.

Take WDDS: the “one-hybrid fitness for binding NBS DNA” value was not above 0.2.

As to CLEA, the “one-hybrid fitness for binding NBS DNA” value was not above 0.2.

In the case of MVGC, the “one-hybrid fitness for binding NBS DNA” value was not above 0.2.

CNSA: the “one-hybrid fitness for binding NBS DNA” value is not above 0.2.

As to HPRG, the “one-hybrid fitness for binding NBS DNA” value was not above 0.2.

As for PHPW, the “one-hybrid fitness for binding NBS DNA” value was not above 0.2.

Turning to SMHR, the “one-hybrid fitness for binding NBS DNA” value was not above 0.2.

Regarding TTNS, the “one-hybrid fitness for binding NBS DNA” value is not above 0.2.

For APCM, the “one-hybrid fitness for binding NBS DNA” value is not above 0.2.

With CMQR, the “one-hybrid fitness for binding NBS DNA” value is not above 0.2.

As to TKAV, the “one-hybrid fitness for binding NBS DNA” value was not above 0.2.

Consider PQKC, for which the “one-hybrid fitness for binding NBS DNA” value was not above 0.2.

Consider ISVR, for which the “one-hybrid fitness for binding NBS DNA” value is not above 0.2.

Regarding RTAQ, the “one-hybrid fitness for binding NBS DNA” value was not above 0.2.

With FDGS, the “one-hybrid fitness for binding NBS DNA” value was not above 0.2.

As for ISTF, the “one-hybrid fitness for binding NBS DNA” value was not above 0.2.

As to VNDW, the “one-hybrid fitness for binding NBS DNA” value was not above 0.2.

LLHF: the “one-hybrid fitness for binding NBS DNA” value was not above 0.2.

Turning to QTYW, the “one-hybrid fitness for binding NBS DNA” value is not above 0.2.

Take NKKT: the “one-hybrid fitness for binding NBS DNA” value is not above 0.2.

As for QHWV, the “one-hybrid fitness for binding NBS DNA” value was not above 0.2.

For the variant IIAR, the “one-hybrid fitness for binding NBS DNA” value is not above 0.2.

As to AHSR, the “one-hybrid fitness for binding NBS DNA” value is not above 0.2.

In the case of DKGR, the “one-hybrid fitness for binding NBS DNA” value was not above 0.2.

As to YIPS, the “one-hybrid fitness for binding NBS DNA” value was not above 0.2.

In the case of STMN, the “one-hybrid fitness for binding NBS DNA” value is not above 0.2.

In the case of TPSW, the “one-hybrid fitness for binding NBS DNA” value is not above 0.2.

Consider RSGE, for which the “one-hybrid fitness for binding NBS DNA” value was not above 0.2.

With LNAS, the “one-hybrid fitness for binding NBS DNA” value was not above 0.2.

For the variant PTLQ, the “one-hybrid fitness for binding NBS DNA” value is not above 0.2.

For AMSG, the “one-hybrid fitness for binding NBS DNA” value was not above 0.2.

As for HKSN, the “one-hybrid fitness for binding NBS DNA” value was not above 0.2.

Consider TLLD, for which the “one-hybrid fitness for binding NBS DNA” value is not above 0.2.

In the case of RVCH, the “one-hybrid fitness for binding NBS DNA” value is not above 0.2.

For RCRC, the “one-hybrid fitness for binding NBS DNA” value is 0.391.

Turning to SVRD, the “one-hybrid fitness for binding NBS DNA” value was not above 0.2.

With VTAQ, the “one-hybrid fitness for binding NBS DNA” value was not above 0.2.

As for SQPH, the “one-hybrid fitness for binding NBS DNA” value is not above 0.2.

In the case of NMWG, the “one-hybrid fitness for binding NBS DNA” value is not above 0.2.

On to LRET, for which the “one-hybrid fitness for binding NBS DNA” value was not above 0.2.

With HKLV, the “one-hybrid fitness for binding NBS DNA” value was not above 0.2.

ADKM: the “one-hybrid fitness for binding NBS DNA” value was not above 0.2.

In the case of RRCC, the “one-hybrid fitness for binding NBS DNA” value came out at 0.325.

For RGRH, the “one-hybrid fitness for binding NBS DNA” value was not above 0.2.

In the case of VHQR, the “one-hybrid fitness for binding NBS DNA” value is not above 0.2.

On to ILFS, for which the “one-hybrid fitness for binding NBS DNA” value was not above 0.2.

HVER: the “one-hybrid fitness for binding NBS DNA” value is not above 0.2.

Regarding KATS, the “one-hybrid fitness for binding NBS DNA” value was not above 0.2.

On to TLDY, for which the “one-hybrid fitness for binding NBS DNA” value is not above 0.2.

As to QGMN, the “one-hybrid fitness for binding NBS DNA” value was not above 0.2.

For the variant RYLL, the “one-hybrid fitness for binding NBS DNA” value was not above 0.2.

In the case of HPVL, the “one-hybrid fitness for binding NBS DNA” value was not above 0.2.

NTRM: the “one-hybrid fitness for binding NBS DNA” value is not above 0.2.

Regarding HSNP, the “one-hybrid fitness for binding NBS DNA” value was not above 0.2.

On to HCNF, for which the “one-hybrid fitness for binding NBS DNA” value was not above 0.2.

HRFC: the “one-hybrid fitness for binding NBS DNA” value was not above 0.2.

Regarding GDHA, the “one-hybrid fitness for binding NBS DNA” value is not above 0.2.

Turning to WSDG, the “one-hybrid fitness for binding NBS DNA” value is not above 0.2.

QTLH: the “one-hybrid fitness for binding NBS DNA” value is 0.223.

Take VPGS: the “one-hybrid fitness for binding NBS DNA” value was not above 0.2.

As for PVDN, the “one-hybrid fitness for binding NBS DNA” value is not above 0.2.

On to RLDN, for which the “one-hybrid fitness for binding NBS DNA” value is not above 0.2.

Regarding DVYE, the “one-hybrid fitness for binding NBS DNA” value was not above 0.2.

Take ATHP: the “one-hybrid fitness for binding NBS DNA” value is not above 0.2.

With YAMR, the “one-hybrid fitness for binding NBS DNA” value was not above 0.2.

For RKNN, the “one-hybrid fitness for binding NBS DNA” value was not above 0.2.

As for RVCK, the “one-hybrid fitness for binding NBS DNA” value was not above 0.2.

Take VLFR: the “one-hybrid fitness for binding NBS DNA” value is not above 0.2.

Regarding VFKG, the “one-hybrid fitness for binding NBS DNA” value is not above 0.2.

Regarding SWRG, the “one-hybrid fitness for binding NBS DNA” value was not above 0.2.

For the variant AERT, the “one-hybrid fitness for binding NBS DNA” value is not above 0.2.

Consider PVPW, for which the “one-hybrid fitness for binding NBS DNA” value was not above 0.2.

Turning to PPKM, the “one-hybrid fitness for binding NBS DNA” value is not above 0.2.

In the case of IIMD, the “one-hybrid fitness for binding NBS DNA” value is not above 0.2.

CLDL: the “one-hybrid fitness for binding NBS DNA” value is not above 0.2.

Regarding ARIC, the “one-hybrid fitness for binding NBS DNA” value is not above 0.2.
